Experimental data as given in the supplement of paper PMC12217912.
The other results are listed elsewhere or left out. The full chains were built here from the parent and the listed change. Inactive controls read about 0.05.

B1: TEV protease; numbered along this chain (parent)
chain: MGESLFKGPRDYNPISSSICHLTNESDGHTTSLYGIGFGPFIITNKHLFRRNNGTLVVQSLHGVFKVKDTTTLQQHLVDGRDMIIIRMPKDFPPFPQKLKFREPQREERICLVTTNFQTKSMSSMVSDTSCTFPSGDGIFWKHWIQTKDGQCGSPLVSTRDGFIVGIHSASNFTNTNNYFTSVPKNFMELLTNQEAQQWVSGWRLNADSVLWGGHKVFMVKPEEPFQPVKEATQL

Variants of: B1
Test: raw area under fraction-flipped curve 0-4 h after induction (AUC4h, not background-subtracted), DNA-recorder readout of cleavage of the substrate (dimensionless); higher = more cleavage of the substrate by the protease variant
Settings: temperature: 34 °C; time window: 0-4 h after rhamnose induction
Description: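 In vivo DNA recorder in E. coli TOP10(DE3) ΔrhaA at 34 °C. Each TEVp single-site mutant (parent TEVp 0) is paired with a single-site variant of the 7-mer TEVs (canonical ENLYFQ|S). The substrate sits between flexible linkers in a Bxb1-sfGFP-TEVs-SsrA fusion, so cleavage stabilises Bxb1 and speeds flipping of a recombination array, read by NGS. The value is the raw area under the fraction-flipped curve over 0-4 h after rhamnose induction (AUC4h), with ≥20 reads per time point. It is not background-subtracted; inactive controls average about 0.047.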
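Note: Bxb1 expression induced with 0.2% (w/v) L-rhamnose at OD600 near 0.5, cultures sampled hourly, flipped fraction per protease–substrate barcode pair counted by paired-end Illumina sequencing.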

Row | Variant | area with substrate ENLYFQC | area with substrate ENLYFQD | area with substrate ENLYFQG | area with substrate ENLYFQH | area with substrate ENLYFQI | area with substrate ENLYFQK | area with substrate ENLYFQM | area with substrate ENLYFQN | area with substrate ENLYFQR | area with substrate ENLYFQS | area with substrate ENLYFQT | area with substrate ENLYFQV | area with substrate ENLYFQW | area with substrate ENLYFQF | area with substrate ENLYFQL | area with substrate ENLYFQP | area with substrate ENLYFQQ | area with substrate ENLYFQY | area with substrate ENLYFQE
1 | MGESLFKGPRDYNPISSKICHLTNESDGHTTSLYGIGFGPFIITNKHLFRRNNGTLVVQSLHGVFKVKDTTTLQQHLVDGRDMIIIRMPKDFPPFPQKLKFREPQREERICLVTTNFQTKSMSSMVSDTSCTFPSGDGIFWKHWIQTKDGQCGSPLVSTRDGFIVGIHSASNFTNTNNYFTSVPKNFMELLTNQEAQQWVSGWRLNADSVLWGGHKVFMVKPEEPFQPVKEATQL [S18K] | 0.076 | 0.0738 | 0.0855 | 0.0806 | 0.0827 | 0.07 | 0.0897 | 0.0689 | 0.0514 | 0.0875 | 0.0387 | 0.0447 | 0.0635 |  |  |  |  |  | 
2 | MGESLFKGPRDYNPISSSICDLTNESDGHTTSLYGIGFGPFIITNKHLFRRNNGTLVVQSLHGVFKVKDTTTLQQHLVDGRDMIIIRMPKDFPPFPQKLKFREPQREERICLVTTNFQTKSMSSMVSDTSCTFPSGDGIFWKHWIQTKDGQCGSPLVSTRDGFIVGIHSASNFTNTNNYFTSVPKNFMELLTNQEAQQWVSGWRLNADSVLWGGHKVFMVKPEEPFQPVKEATQL [H21D] | 0.0893 | 0.0548 | 0.0674 | 0.0553 |  | 0.0573 | 0.0598 | 0.0359 | 0.0374 | 0.0756 | 0.0622 |  | 0.0489 | 0.0719 | 0.0542 | 0.0494 | 0.0551 | 0.0571 | 
3 | MGESLFKGPRDYNPISSSICHLSNESDGHTTSLYGIGFGPFIITNKHLFRRNNGTLVVQSLHGVFKVKDTTTLQQHLVDGRDMIIIRMPKDFPPFPQKLKFREPQREERICLVTTNFQTKSMSSMVSDTSCTFPSGDGIFWKHWIQTKDGQCGSPLVSTRDGFIVGIHSASNFTNTNNYFTSVPKNFMELLTNQEAQQWVSGWRLNADSVLWGGHKVFMVKPEEPFQPVKEATQL [T23S] | 0.0904 | 0.0802 | 0.0694 | 0.0713 | 0.0606 | 0.0773 | 0.0816 | 0.076 | 0.0801 | 0.0959 | 0.059 | 0.0518 | 0.0765 | 0.0935 | 0.0606 | 0.0773 |  | 0.0695 | 
4 | MGESLFKGPRDYNPISSSICHLTNEKDGHTTSLYGIGFGPFIITNKHLFRRNNGTLVVQSLHGVFKVKDTTTLQQHLVDGRDMIIIRMPKDFPPFPQKLKFREPQREERICLVTTNFQTKSMSSMVSDTSCTFPSGDGIFWKHWIQTKDGQCGSPLVSTRDGFIVGIHSASNFTNTNNYFTSVPKNFMELLTNQEAQQWVSGWRLNADSVLWGGHKVFMVKPEEPFQPVKEATQL [S26K] | 0.0745 | 0.0411 | 0.0761 | 0.054 |  | 0.0509 | 0.0602 | 0.0705 | 0.0595 | 0.0709 | 0.0545 | 0.0684 |  |  | 0.0546 |  | 0.075 | 0.0457 | 
5 | MGESLFKGPRDYNPISSSICHLTNESKGHTTSLYGIGFGPFIITNKHLFRRNNGTLVVQSLHGVFKVKDTTTLQQHLVDGRDMIIIRMPKDFPPFPQKLKFREPQREERICLVTTNFQTKSMSSMVSDTSCTFPSGDGIFWKHWIQTKDGQCGSPLVSTRDGFIVGIHSASNFTNTNNYFTSVPKNFMELLTNQEAQQWVSGWRLNADSVLWGGHKVFMVKPEEPFQPVKEATQL [D27K] | 0.0855 | 0.0793 |  |  | 0.0589 | 0.0682 |  | 0.0801 | 0.0564 | 0.0877 |  | 0.0587 | 0.093 | 0.068 | 0.0536 |  | 0.0661 | 0.0846 | 0.07
6 | MGESLFKGPRDYNPISSSICHLTNESDGRTTSLYGIGFGPFIITNKHLFRRNNGTLVVQSLHGVFKVKDTTTLQQHLVDGRDMIIIRMPKDFPPFPQKLKFREPQREERICLVTTNFQTKSMSSMVSDTSCTFPSGDGIFWKHWIQTKDGQCGSPLVSTRDGFIVGIHSASNFTNTNNYFTSVPKNFMELLTNQEAQQWVSGWRLNADSVLWGGHKVFMVKPEEPFQPVKEATQL [H29R] | 0.073 | 0.0583 |  | 0.0717 |  | 0.0796 | 0.077 | 0.0835 | 0.0728 | 0.0792 | 0.0546 |  | 0.0571 | 0.0571 | 0.0558 | 0.0709 | 0.0665 |  | 
7 | MGESLFKGPRDYNPISSSICHLTNESDGHFTSLYGIGFGPFIITNKHLFRRNNGTLVVQSLHGVFKVKDTTTLQQHLVDGRDMIIIRMPKDFPPFPQKLKFREPQREERICLVTTNFQTKSMSSMVSDTSCTFPSGDGIFWKHWIQTKDGQCGSPLVSTRDGFIVGIHSASNFTNTNNYFTSVPKNFMELLTNQEAQQWVSGWRLNADSVLWGGHKVFMVKPEEPFQPVKEATQL [T30F] | 0.112 | 0.073 | 0.113 |  | 0.0592 | 0.0618 | 0.082 | 0.0746 | 0.0692 | 0.102 | 0.0672 | 0.0646 | 0.0604 | 0.0802 | 0.061 | 0.0533 | 0.0609 | 0.0836 | 
8 | MGESLFKGPRDYNPISSSICHLTNESDGHTPSLYGIGFGPFIITNKHLFRRNNGTLVVQSLHGVFKVKDTTTLQQHLVDGRDMIIIRMPKDFPPFPQKLKFREPQREERICLVTTNFQTKSMSSMVSDTSCTFPSGDGIFWKHWIQTKDGQCGSPLVSTRDGFIVGIHSASNFTNTNNYFTSVPKNFMELLTNQEAQQWVSGWRLNADSVLWGGHKVFMVKPEEPFQPVKEATQL [T31P] | 0.0723 |  | 0.0342 | 0.0569 | 0.059 | 0.0604 | 0.0561 | 0.0706 | 0.0644 | 0.064 | 0.0522 | 0.0441 | 0.0631 | 0.0903 | 0.0502 | 0.0423 |  | 0.0567 | 
9 | MGESLFKGPRDYNPISSSICHLTNESDGHTWSLYGIGFGPFIITNKHLFRRNNGTLVVQSLHGVFKVKDTTTLQQHLVDGRDMIIIRMPKDFPPFPQKLKFREPQREERICLVTTNFQTKSMSSMVSDTSCTFPSGDGIFWKHWIQTKDGQCGSPLVSTRDGFIVGIHSASNFTNTNNYFTSVPKNFMELLTNQEAQQWVSGWRLNADSVLWGGHKVFMVKPEEPFQPVKEATQL [T31W] | 0.118 | 0.0563 | 0.101 | 0.0744 | 0.0689 |  | 0.0824 | 0.0879 | 0.0452 | 0.0925 | 0.0785 | 0.0911 | 0.0654 | 0.0718 |  | 0.0439 |  | 0.0955 | 
